In all, about 48,000 compounds went through this assay and about 450 (0.94%) were called active. Not shown: some 19% with an inconclusive outcome. Calls follow the shape of the dose curve; as a rule, active = well fitted inhibition curve with a large enough effect; inconclusive = small, poorly fitted or top-dose-only effect; inactive = no such curve, though single readings can be large or run the other way. Some of the results follow.
Experiment: Primary qHTS for Identification of Small Molecule Inhibitors of Huntingtin Promoter Activity; also: nearly all actives have a fitted effect of over 50% in size
Conditions: HEK293 HTT promoter firefly luciferase reporter (activity 0% = vehicle and -100% = no light), 24 h; series mostly up to 57.5 µM; activity change, negative = inhibition: at the top concentration
Summary of the method: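 Firefly luciferase signal from promoter-reporter HEK293 cells was scaled between vehicle (0%) and zero RLU (-100%). Compounds were tested at final concentrations of up to 57.5 uM over 24 h at 37 degrees C. PTC124 at 50 uM final served as control inhibitor.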

Activity change, negative = inhibition, inactive:
CCCSCCCNC(=O)c1ccc2c(c1)sc1nc(-c3ccc(OCC)cc3)cn12 -9.4%
COc1cccc(CNC(=O)c2cnc(N3CCCCC3)c3ccccc23)c1 -15%
O=C(NCc1ccccc1F)C1CCN(c2nn3cc(-c4ccc(F)cc4)nc3s2)CC1 11.7%
CN1c2ccc(Cl)cc2-c2nc(SCC(=O)NCc3ccccc3)ncc2S1(=O)=O -18.3%
Cc1ccc(Cn2c(C(=O)O)c(CNC3CCCC3)c3ccc(C)cc32)cc1 -14.1%
Cc1cc(C)cc(-n2c(SCC(N)=O)nc3c([nH]c4ccccc43)c2=O)c1 -24.1%
O=C(Nc1ccccc1C(F)(F)F)N1CCC(CN2CCc3ccccc3C2)CC1 -16.1%
O=C(NC1CC(=O)N(c2cccc(F)c2)C1)c1cc2ccccc2o1 (stereo unspecified) 11.2%
COCCNc1oc(/C=C/c2ccc(F)cc2)nc1C#N 61.1%
Cc1ccc2nc(-c3cccc(NC(=O)c4cccc5ccccc45)c3)oc2c1 26.8%
CCC(=O)N1CCc2cc(Br)cc(S(=O)(=O)CCC(=O)NCc3cccc(OC)c3)c21 -14.6%
CCOc1ccc(-n2c(SCC(=O)NC3CCCCC3)nc3c([nH]c4ccccc43)c2=O)cc1 -9.49%
Cc1ccc(-n2c(=O)c3c(cnn3C)n(CC(=O)Nc3ccccc3C)c2=O)cc1 -1.92%
Cc1ccc(CNC(=O)CCCn2c(=O)[nH]c3ccc(Br)cc3c2=O)cc1 8.36%
Cc1cccc(Cn2cc(S(=O)(=O)c3cccc(C)c3)c(=O)c3cc(F)c(N4CCOCC4)cc32)c1 -18.9%
CCCCn1c(=NC(=O)c2cc3ccccc3o2)c(C(=O)OCC)cc2c(=O)n3ccccc3nc21 -9.19%
COc1ccc(Cn2ccnc2SCC(=O)NCc2ccco2)cc1 -16.7%
COc1ccc(-c2onc(C)c2C)cc1S(=O)(=O)NCC1CCN(Cc2cc(C)ccc2C)CC1 -30.8%
CCN(CC)CCNC(=O)Cn1nc(C)c2c(C)n(-c3ccccc3)nc2c1=O -12.1%
CCn1c(=O)c2cc(C(=O)NCCCN3CCC(C)CC3)sc2c2ccccc21 38.3%
COC(=O)c1ccccc1NC(=O)c1ccc2nc(CCc3ccccc3)oc2c1 5.49%
COc1cccc(-c2noc(COc3ccccc3Cl)n2)c1 50.3%
Cc1ccc(Cl)cc1NC(=O)CSc1nc2ccccc2nc1Cc1ccccc1 -2.16%
CCOC(=O)c1cn(CC(=O)Nc2ccc(OC)cc2OC)nn1 -13.6%
CCOc1ccc(CCNC(=O)c2ccc3c(c2)N(Cc2ccc(C)cc2)CCS3)cc1 -29.7%
O=C(C1CCCN(S(=O)(=O)c2ccc(Br)s2)C1)N1CCN(c2ccccc2F)CC1 (stereo unspecified) -23.6%
CCN(CC)CCCNc1sc(S(=O)(=O)c2ccccc2)nc1S(=O)(=O)c1ccc(Cl)cc1 -3.88%
CCOC(=O)c1c(C)[nH]c(CCC(=O)NC(C)c2ccccc2)c1C (stereo unspecified) -10.5%
CCN(C(=O)c1sc2nc3n(c(=O)c2c1C)CCCCC3)c1ccc(OC)cc1 -6.16%
Cc1ccc(Cl)cc1NC(=O)Cn1c(=O)n(CCC(=O)NCc2ccc3c(c2)OCO3)c(=O)c2sccc21 -9.79%
COC(=O)C(NC(=O)CCc1c(C)nc2c(-c3ccccc3)c(C)nn2c1C)C(C)C (stereo unspecified) -19.3%
CCCC(=O)Nc1nnc(S(=O)(=O)N2CCCCCC2)s1 -8.88%
O=C(CCN1CCN(C(=O)OCc2cc(Cl)cc(Cl)c2)CC1)c1ccc2[nH]c(=O)oc2c1 3.26%
COc1ccc(C2C(C(=O)Nc3ccccc3)=C(C)Nc3nc(SCC(=O)c4ccc(C)cc4)nn32)cc1 (stereo unspecified) 2.17%
CC1=C(c2ccc(F)cc2)S(=O)(=O)N=C1N1CCC(C(=O)NCCc2ccccc2C)CC1 -14.7%
Cc1c(C(=O)Nc2ccc(-n3c(C)nc4ccccc4c3=O)cc2)cccc1[N+](=O)[O-] -22.2%
CCOc1cc2c(cc1OCC)C(CC(=O)O)N(C(=O)Nc1ccccc1C(F)(F)F)CC2 (stereo unspecified) -18%
Cc1cc(C)nc(-n2nc(C)c3c2NC(=O)CC3c2cccc(O)c2)n1 (stereo unspecified) -4.13%
Cc1cc2nn(-c3ccc(F)cc3)nc2cc1NC(=O)c1cccc2c(Cl)cccc12 -12%
CCOC(=O)c1ccc2c(c1)N(Cc1ccc(F)cc1Cl)C(=O)c1ccccc1S2(=O)=O -11.1%
CCn1c(C)c(C)c2cc(C(=O)NCc3ccc(F)cc3)ccc21 -6.88%
COc1ccc(-n2cc(-c3ccccc3)c3c(Nc4ccc(OC)c(OC)c4)ncnc32)cc1 -27.4%
Cc1noc(-c2ccc(NC(C)c3ccccc3)c([N+](=O)[O-])c2)n1 (stereo unspecified) -16.7%
CCC(=O)N1CCc2cc(Br)cc(S(=O)(=O)N3CCN(c4ccccc4OC)CC3)c21 0.68%
COc1ccc(-c2oc3c(CC=C(C)C)c(O)cc(O)c3c(=O)c2O)cc1 21.9%
Cc1ccc(CNC(=O)c2ccc(CSCc3cccc(C)c3)o2)cc1 -12.6%
Cc1cc(C)cc(-n2c(SCC(=O)N3CCOCC3)nc3c([nH]c4ccccc43)c2=O)c1 -16.4%
Cc1ccc(CCNS(=O)(=O)c2c(C)nc3sc(C)c(C)n3c2=O)cc1 -1.8%
COc1cccc(-c2nnc(-c3ccccc3NC(=O)c3ccc(F)cc3F)o2)c1 2.17%
CC1CCN(S(=O)(=O)c2ccc3c(c2)N(CC(=O)NCCc2ccccc2)C(=O)CO3)CC1 0.831%
COc1cccc(NC(=O)c2ccc3c(c2)CCN3S(C)(=O)=O)c1 45.3%
Cc1nc2nc(NCc3ccc(Cl)cc3)[nH]n2c(=O)c1Cc1ccccc1 -10.2%
CCCn1c(CCC(=O)Nc2ccc(OCC)cc2)nc2cccnc21 -20.2%
CCN(CC)CCCCNc1ncc2c(n1)N(C)C(=O)N(c1c(Cl)c(OC)cc(OC)c1Cl)C2 -13.7%
CCOC(=O)c1c(C)oc2nc(C)nc(NCc3ccc(F)cc3)c12 6.77%
COc1ccc(C(=O)Nc2nnc(SCc3cc(=O)c4cc(C)cc(C)c4[nH]3)s2)cc1 7.75%
Cc1ccc(CNC(=O)CCCn2c(=O)c3ccccc3n(CC(=O)Nc3ccc(C)c(C)c3)c2=O)cc1 -0.302%
CCOc1ccc(CCNC(=O)CCCn2c(=O)c3cccn3c3ccccc32)cc1 -19.9%
COC(=O)NCC(c1cccnc1)N1CCN(c2ccc(F)cc2)CC1 (stereo unspecified) -15%
Cc1ccc(-n2ncc3c(NCCC4=CCCCC4)ncnc32)cc1 -15.9%
Cc1ccc(Cl)cc1NC(=O)C(C)n1nc(-c2ccccc2)ccc1=O (stereo unspecified) -19.8%
Cn1c(=O)c2c(nc(SCC(=O)Nc3ccccc3F)n2Cc2ccc(Cl)cc2)n(C)c1=O -2.92%
CCc1ccccc1NC(=O)CCNS(=O)(=O)c1ccc2c(c1)CCN2C(=O)C1CC1 0.171%
CC1CCN(CCCC(=O)c2ccc(F)cc2)CC1 -3.71%
COc1ccccc1N1CCN(S(=O)(=O)c2c(C)sc3ncn(CC(=O)N(C)c4ccc(Cl)cc4)c(=O)c23)CC1 -22.3%
CCNC(=O)c1c(NC(=O)Cc2coc3cc(C)cc(C)c23)sc2c1CCCC2 0.671%
Oc1c(C(c2ccccc2F)N2CCN(Cc3ccccc3)CC2)sc2nc(-c3ccco3)nn12 (stereo unspecified) -9.14%
Cc1c(C(=O)N2CCC(c3nc4ccccc4s3)CC2)oc2ccc(Cl)cc12 -17.6% [at 11.5 µM]
Cc1ccc2c(CC(=O)Nc3ccc(S(=O)(=O)N4CCCCC4)cc3)coc2c1 -27.9%
Cc1ccc(Cl)cc1NC(=O)Cn1c(=O)oc2cc(S(=O)(=O)N3CCCC3)ccc21 -50.9%
CCOc1ccccc1N(C)C(=O)C1CCCN(c2ncnc3c2nc2n3CCCCC2)C1 (stereo unspecified) -8.49%
Cc1cc(C)c2c(=O)nc(SCc3ccccc3C)n(C3CC3)c2n1 -3.06%
Nc1ccc(S(N)(=O)=O)cc1
Cc1ccc(NC(=O)c2cc(-c3ccc(Br)s3)nc3ccccc23)cc1F 2.87%
COc1ccc(C(=O)OC2=C(C(=O)c3ccccc3)N(C)S(=O)(=O)c3ccccc32)cc1OC -14.7% [at 11.5 µM]
CCN1CCC[C@H]1CNC(=O)c1cc(S(N)(=O)=O)ccc1OC 14.6%
Cc1ccccc1CN1CCC(CNc2ncnc3onc(-c4ccc(F)cc4)c23)CC1 -0.0409%
CCOC(=O)c1c(C)c(-c2ccccc2)n(CC(=O)Nc2cc(C)ccc2OC)c1C -6.63%
CCc1cccc(-n2nnc(-c3nsc(NC(=O)c4cccs4)n3)c2C)c1 26.9%
CC(=O)Nc1ccc2nc(-c3cc(C)ccc3C)[nH]c2c1 15.7%
CCCCN(CC)CCNC(=O)c1cn(C)c(=O)c2c1c1ccccc1n2C -0.415%
COC(=O)c1ccccc1NC(=O)Cn1nnc2sc(-c3ccccc3)cc2c1=O 6.5%
CCc1ccc(-c2nn(CC(=O)NC3CCCC3)c3c2cnc2ccc(F)cc23)cc1 65.9%
CCOc1ccccc1NC(=O)NCCn1c(=O)oc2ccc(C)cc21 -10.3%
COc1ccc(-c2nc(-c3ccccc3)c(-c3ccc(O)cc3)[nH]2)cc1 -0.0768%
COc1ccccc1CNS(=O)(=O)c1cc2c3c(c1)CCN3C(=O)CC2 -31.9%
COc1ccccc1C(=O)Nc1nc(-c2ccccc2)ns1 61.2%
COc1ccc(Cn2c(C(=O)O)c(CNC3CCCCCC3)c3ccc(OC)cc32)cc1 -15.1%
O=C(/C=C/c1ccc(F)cc1)Nc1nc2n(n1)C(c1ccc(Cl)cc1)C=C(c1ccccc1)N2 (stereo unspecified) -28.4%
COc1ccc(OC)c(CNC(=O)CCn2c(=O)c3cccn3c3ccc(F)cc32)c1 -3.53%
COc1ccc(-n2ncc3c(NCCC4=CCCCC4)ncnc32)cc1 -6.68%
Cc1ccccc1-c1nc(CS(=O)(=O)CC(=O)NCc2cccc(Cl)c2)c(C)o1 -3.05%
Cc1ccc(N2CC(C(=O)Nc3ccc(Br)cc3)CC2=O)cc1 (stereo unspecified) -19.9%
C=Cc1ccc(CN2C(=O)N(c3cccc(Cl)c3)S(=O)(=O)c3ccccc32)cc1 -23.5%
Cc1ccc2c(=O)c(C(=O)c3cccc(Cl)c3)cn(CC(=O)NCc3ccc(F)cc3)c2n1 -14.5%
COc1ccc(C(=O)n2nc(-c3ccco3)nc2NCc2cccs2)cc1 15.2%
